# Assay results from PubChem BioAssay AID1745853 (National Center for Advancing Translational Sciences (NCATS), 2022).
# The list shows a part of the results. These are further read-outs of the screen, such as a control signal, another cell line or another target. No call is given for them. Peptide text beside a SMILES is read from it.
# What was measured:
# Experiment in all cases: Primary Screen for Target Class Profiling of Small Molecule Inhibitors of Methyltransferases
# [1] = target: Glycine N-methyltransferase (Homo sapiens) (UniProt Q14749); conditions: purified enzyme, MTase-Glo SAH luminescence; measured here: GNMT inhibition; at 40 µM; stronger effect = lower value
# In short: (§1)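 Each enzyme was assayed with SAM and its substrate. SAH formation detected by MTase-Glo luminescence; single-point 40 uM screen[…].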
# [2] = target: Guanidinoacetate N-methyltransferase (Homo sapiens) (UniProt Q14353); conditions: purified enzyme, MTase-Glo SAH luminescence; measured here: GAMT inhibition; at 40 µM; stronger effect = lower value
# In short: as §1
# [3] = target: Histamine N-methyltransferase (Homo sapiens) (UniProt P50135); conditions: purified enzyme, MTase-Glo SAH luminescence; measured here: HNMT inhibition; at 40 µM; stronger effect = lower value
# In short: as §1
# [4] = target: Nicotinamide N-methyltransferase (Homo sapiens) (UniProt P40261); conditions: purified enzyme, MTase-Glo SAH luminescence; measured here: NNMT inhibition; at 40 µM; stronger effect = lower value
# In short: as §1
# [5] = target: Phenylethanolamine N-methyltransferase (Homo sapiens) (UniProt P11086); conditions: purified enzyme, MTase-Glo SAH luminescence; measured here: PNMT inhibition; at 40 µM; stronger effect = lower value
# In short: as §1
# % is set by controls: 0 for no effect and ±100 for the full control effect.
Compound,"activity change, negative = inhibition [1] [%]","activity change, negative = inhibition [2] [%]","activity change, negative = inhibition [3] [%]","activity change, negative = inhibition [4] [%]","activity change, negative = inhibition [5] [%]"
COc1ccc2c(C)c(C(=O)N3CCCCC3c3cc(C)on3)oc2c1 (stereo not drawn),-5.2,-1.24,1.06,-8.94,-3.91
CCCNC(=O)N1Cc2c(sc3c2CCCC3)-n2cccc2C1c1cccs1 (stereo not drawn),-9.35,-2.2,-0.574,-14.6,-1.32
CC(=O)/C=C/C1(O)C(C)=CC(=O)CC1(C)C (stereo not drawn),-0.597,3.6,2.92,-9.04,5.59
CC(=O)NC(Cc1ccccc1)C(=O)NC(C(=O)O)C(C)C (stereo not drawn) (Ac-Phe-Val-OH; configuration not given here),-2.88,-5.33,7.59,-17.5,-7.64
Cc1cc(CN)cc(C)c1NC(=O)c1ccc(-c2cc(Cl)ccc2Cl)o1,-16.9,-0.389,-43.9,-21.7,-10.3
O=C(c1ccc(Br)o1)N1C[C@@H](CO)[C@H](c2ccncc2)C1,-3.95,-2.17,2.79,-4.12,-2.5
COc1ccc2cc3n(c2c1)CC(C)(C(=O)NC1CCCCC1)N(C(C)c1ccccc1)C3=O (stereo not drawn),1.77,0,2.11,-4.22,-4.93
[N-]=[N+]=Nc1ccc(C(=O)CSC[C@H](NC(=O)CC[C@H](N)C(=O)O)C(=O)NCC(=O)O)cc1,-12.1,10.7,5.67,-11.8,1.42
CC1(C(=O)NC2CCCCC2)Cn2c(nc3ccccc32)C(=O)N1Cc1cccs1 (stereo not drawn),-3.68,1.84,2.19,-4.09,-1.85
Cc1ccc(CN2C(=O)c3ccc(-c4ccco4)n3CC2(C)C(=O)NC2CCCCC2)o1 (stereo not drawn),-4.46,0.062,6.54,-7.11,1.76
CCOC(=O)N1CCC(NC)CC1,-6.52,-7.27,-3.88,-9.04,-13
O[C@H]1[C@H](NCc2ccco2)[C@H]2CO[C@H](O2)[C@@H]1N1CCC(Cc2ccccc2)CC1,-1.09,-1.24,-2.21,-1.74,-1.28
CCn1c(=O)n(CC)c2cc(S(=O)(=O)N3CCN(c4ccccc4)CC3)ccc21,14.7,3.67,13.2,8.23,9.97
COc1cccc(C(=O)N2CCC(C(NC(=O)CC(C)C)C(=O)NCC(C)C)CC2)c1 (stereo not drawn),-4.18,-0.693,0.791,0.883,12.3
CC1(C(=O)NC2CCCCCC2)Cn2nc(-c3ccco3)cc2C(=O)N1CCc1ccc(Cl)cc1 (stereo not drawn),-14.4,4.22,-7.65,-12.8,-5.42
c1csc(CN2CCC(Oc3ccccc3-c3nc(-c4cnccn4)no3)C2)c1 (stereo not drawn),-15.5,-4.17,-24.1,-26.6,-7.43
Cc1ccc(Cn2c(=O)c3ccccc3n3c(CCC(=O)NCCN4CCOCC4)nnc23)cc1,-11,0.989,-7.94,4.5,-8.17
CCN1CCN(c2cc(-c3ccc(F)cc3)c3c(n2)CCCCCC3)CC1,2.71,10.4,12.5,-18.6,4.5
CC1=CC(=O)C2C(C)(C)CCC[C@]2(C)[C@H]1CC[C@H](C)CC(=O)O (stereo partly drawn),-1.25,-1.61,9.87,-17.3,5.28

Compound,"activity change, negative = inhibition [1] [%]","activity change, negative = inhibition [2] [%]","activity change, negative = inhibition [3] [%]","activity change, negative = inhibition [4] [%]","activity change, negative = inhibition [5] [%]"
Cc1ccc(-c2cc(N3CCCN(C(=O)c4ccccc4F)CC3)n[nH]2)cc1C,-7.31,-5.23,-5.11,-12.6,-3.98
COc1ccccc1CNC(=O)Cn1ccc2cc(S(=O)(=O)N3CCCC3)ccc21,-3.31,-3.17,-6.13,-8.05,-5.22
c1ccc(Cn2c(-c3ccc(OCC(C4CCNCC4)n4c(-c5ccccc5)nc5ccccc54)cc3)nc3ccccc32)cc1 (stereo not drawn),-26.6,-0.499,-52.1,-82,-3.88
COc1ccccc1CN1C(=O)c2cc3ccccc3n2CC1(C)C(=O)NC1CCCCC1 (stereo not drawn),-0.048,3.83,7.7,4.69,1.79
C=C1CCC2C(C)(C)C(O)CCC2(C)C1CCC(C)CCO (stereo not drawn),-15,-7.93,0.29,-24.5,-20.7
Cc1ccccc1-c1cnc2[nH]cc(CC(=O)N3CCOCC3)c2c1,-14.7,-8.59,-6.3,-17.5,-17.3
CCOC(=O)CCN(C(=O)c1ccc2c(c1)nc(CNc1ccc(C(=N)N)cc1)n2C)c1ccccn1,-3.95,-0.937,-91.2,-25,-11.7
O=C(O)c1ccc(N2C(=O)/C(=C/c3ccc(-c4ccc([N+](=O)[O-])cc4)o3)C=C2c2ccccc2)cc1,-40.2,-24.2,-14.1,-29.6,-4.76
CC1(C(=O)NC2CCCCC2)Cn2c(cc3sccc32)C(=O)N1CC1CCCO1 (stereo not drawn),-2.31,4.5,1.96,-1.88,2.62
CNC(=O)N1CCC(C2CCN(C(=O)c3cnn(C)c3)C2)CC1 (stereo not drawn),-1.83,-0.717,1.55,-7.07,-13.2
O=C(C[C@@H]1C[C@H]2O[C@H](CNC3CCOCC3)[C@@H](O)[C@H]2O1)N1CCC(F)(F)C1,-3.77,-13.1,-2.15,-17.3,-15.5
COc1ccc2cc1Nc1ccc(cc1)C[C@H](NCc1ccc(C)o1)C(=O)N(C)[C@H](C(=O)NCCC(C)C)C2,-5.4,-8.12,-6.57,-8.21,-14.8
CC(=O)O[C@H]1Cc2ccccc2N(C(N)=O)c2ccccc21,-0.192,0.789,0.421,-6.46,2.1
Cc1nnnn1CC(=O)N1CCCC(c2ccccc2)(c2ccccc2)C1,-7.07,-7.88,-2.93,-16,-7.25
C=C1CC[C@@H]2[C@](C)(CO)[C@H](O)CC[C@@]2(C)[C@@H]1CC(O)C1=CCOC1=O (stereo partly drawn),4.57,7.54,6.32,-6.11,6.8
CC#CC(=O)N1CCCC(C(=O)Nc2ccc(-c3cccc(OC)c3)cc2)C1 (stereo not drawn),-8.62,-9.79,-2.95,-13.3,-7.63
CCOC(=O)c1cccc(NC(=O)Cn2c(=O)oc3cc(S(=O)(=O)N4CCCC4)ccc32)c1,0.901,4.29,-0.923,-2.49,-24
COc1ccc(C#Cc2ccc(C(=O)N3CCC[C@@H](O)C3)c(F)c2)cc1,-7.35,-21.4,-0.117,-33.4,-0.092
CCCOc1ccc(CN2C(=O)c3cc4ccccc4n3CC2(C)C(=O)NCc2ccccc2)cc1 (stereo not drawn),0.872,0,1.22,-1.91,-4.5

Compound,"activity change, negative = inhibition [1] [%]","activity change, negative = inhibition [2] [%]","activity change, negative = inhibition [3] [%]","activity change, negative = inhibition [4] [%]","activity change, negative = inhibition [5] [%]"
O=C(Nc1ccc(C(F)(F)F)cn1)N1CCN(c2ncccc2C(F)(F)F)CC1,-5.96,-1.95,4.31,-15,-54.6
CC(C)=CCC[C@](C)(OC1OC(COC2OCC(O)C(O)C2O)C(O)C(O)C1O)[C@H]1CC[C@]2(C)[C@@H]1[C@H](O)C[C@@H]1[C@@]3(C)CC[C@H](OC4OC(CO)C(O)C(O)C4OC4OC(CO)C(O)C(O)C4O)C(C)(C)[C@@H]3CC[C@]12C (stereo partly drawn),,27.2,,10.3,11.9
Cc1ccc(-c2n[nH]n3c2nc(=O)c2ccc(C(=O)NCc4ccc5c(c4)OCO5)cc23)cc1,-16.6,-5.02,-2.15,-10.5,-2.92
COC(=O)c1ncn2c1C(=O)N(Cc1ccco1)C(C)(C(=O)NC1CCCC1)C2 (stereo not drawn),3.12,0,-1.25,3.66,0.088
Cc1ccc(C(=O)N(CCCN)C(c2nc3cc(Cl)ccc3c(=O)n2Cc2ccccc2)C(C)C)cc1 (stereo not drawn),5.35,5.81,5.37,-16.8,0.873
CCCN1CCC(N2C[C@H]3OC(=O)N(CCc4cccc(Cl)c4)[C@H]3C2)CC1,-10.5,-18.1,-24.9,-19.8,-18.8
CC1(C)CC[C@@]2(C(=O)O[C@@H]3O[C@H](CO)[C@@H](O)[C@H](O)[C@H]3O)C(C1)C1=CCC3[C@@]4(C)CC[C@@H](O[C@@H]5O[C@H](C(=O)O)[C@@H](O[C@@H]6OC[C@@H](O)[C@H](O)[C@H]6O)[C@H](O[C@@H]6OC[C@](O)(CO)[C@H]6O)[C@H]5O)C(C)(C)C4CC[C@@]3(C)[C@]1(C)C[C@H]2O (stereo partly drawn),0,1.37,-0.905,-9.97,2.6
O=c1c2ccccc2n2c(-c3ccc(F)c(F)c3)nnc2n1Cc1ccccc1Cl,-30.5,3.79,-5.52,-3.25,-3.11
CN1CCN(C(=O)c2ccc3cc(CCNc4ncnc5ccc(C#N)cc45)ccc3c2)CC1,-56.6,-8.77,8.09,-15.5,-0.344
CCc1cccc(-n2nnnc2N2CCN(C(=O)Cc3ccc(C)c(F)c3)CC2)c1,-8.56,-6.51,-3.4,-25.3,-9.05
CC1=C2CC(C)(C)CC2C(O)C2=C(C1)C(=O)OC2O (stereo not drawn),3.33,3.27,9.31,-12.5,5.84
COc1ccc(OC)c(-c2cc(Cl)c3c(c2)CC(CNC(=O)c2c(F)cccc2F)O3)c1 (stereo not drawn),-5.13,-8.25,-4.42,-11.4,-13.5
CN(C)c1cccc(-c2cnc(Nc3cnccn3)c3c2CCO3)c1,-6.71,-0.95,-4.91,-7.77,0.697
CCc1cc2c(cc3n2CC(C)(C(=O)NC2CCCCC2)N(Cc2ccccc2Cl)C3=O)s1 (stereo not drawn),-2.73,4.09,1.61,1.68,-1.09
COCc1cc(C[C@@H]2CC[C@H](O)[C@@H](CNCc3ccc(Cl)cc3)O2)no1,-5.87,-6.84,-4.24,-10.3,-7.09
CC(=O)NC1C(OC2CCC3(C)C(CCC4(C)C3CC=C3C5CC(C)(C)CCC5(C(=O)O)C(O)CC34C)C2(C)C)OC(CO)C(O)C1O (stereo not drawn),0,-7.02,4.51,-20.5,-14.2
Cc1cc2ncc(C(=O)NC(C)CCc3ccccc3)cn2n1 (stereo not drawn),-8.27,-9.12,-5.38,-8.56,-10.4
COc1ccccc1CCN1CCCC(CN(C)C(=O)CN2C(=O)CNC2=O)C1 (stereo not drawn),-1.95,-2.12,-1.39,-4.89,3.12
CC1CCC(NC(=O)C2(C)Cn3c(ccc3-c3ccccc3)C(=O)N2Cc2cccc(Cl)c2)CC1 (stereo not drawn),5.54,0,2.8,4.7,2.12
